About 2,300 (0.77%) of roughly 300,000 compounds were called active. Inconclusive means that the source gave no clear call. Such entries were picked first, then a sample of the others.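 The calls were made as follows: active = mean activation of at least 80% with every replicate also reaching 80%; inconclusive = mean reaches 80% but some replicate falls short; inactive = the rest.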
Assay: MITF-driven TRPM1 luciferase induction in melanoma cells – cell-based, SK-MEL-5, single point, primary screen (AID 588334);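 also: 0% = neutral control wells and 100% = parthenolide positive control wells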
Settings: SK-MEL-5 TRPM1-promoter luciferase, 24 h; at 12.5 µM; active compounds read high; % of positive control, neutral wells = 0

activation, inconclusive:
Cc1cccc(-c2nnc3sc(-c4ccccc4)nn23)c1 85%, CCCNC(=O)c1noc2c1CCc1ccccc1-2 80.6%, N/C(=N\OC(=O)/C=C/c1ccccc1Cl)c1ccncc1 94.6%, Cc1cccc(CNC(=O)c2ccc3nc(Cc4ccccc4F)oc3c2)n1 81.7%, COc1ccc(/C=C/c2ccc3c(Br)ccc(O)c3n2)cc1 81.5%, Cc1ccn2cc(-c3cccc(NS(C)(=O)=O)c3)nc2c1 82%, Brc1ccc(-c2nnc(-c3ccco3)o2)cc1 83.7%, O=C(NNC(=S)Nc1ccccc1)c1ccc(O)cc1 85%, C/C(Cl)=C/CSc1nn2c(=O)c3ccccc3nc2s1 88.8%, CCCCOc1ccc(-c2nc(SCC(N)=O)n[nH]2)cc1 80.6%, Cc1ccc(NC(=O)CCCc2ccccc2)nc1 82.6%, O=C(Nc1ccc(F)cc1)Nc1ccc2c(c1)CCC2 87%, CCc1cc2c(=O)c(-c3ccc4c(c3)OCCO4)coc2cc1OS(C)(=O)=O 84.9%, O=c1c2ccccc2oc2cc(-c3ccc(CN4CCOCC4)cc3)ccc12 83.2%, O=C(Nc1ccon1)c1ccc(OC2CCCC2)cc1 85.7%, Cc1nc2ccc(NC(=O)C3COc4ccccc4O3)cc2s1 (stereo not given) 90.6%, COc1cccc(-c2cc(C(=O)N3CCCCC3C)no2)c1 (stereo not given) 80.5%, CCn1c(C)cc(/C=C2/SC(=O)N(C(C)C(=O)OC)C2=O)c1C (stereo not given) 82.9%, COc1ccc(/C=C2\SC(=O)N(CCNC(=O)Cn3cnnn3)C2=O)cc1 91%, O=C(NOCc1ccccc1)OCc1ccccc1 99.3%, COc1cc(/C=C2\SC(=S)N(Nc3ccccc3)C2=O)ccc1O 85.9%, COc1ccccc1OCCCOc1ccc(C)cc1Br 90.8%, CC(NS(=O)(=O)c1cccc(Cl)c1)C(=O)Nc1ccc(-c2nc3ccccc3s2)cc1 (stereo not given) 82.6%, O=C(Nc1ccc2c(c1)OCCO2)C1CC(c2ccccc2Cl)=NO1 (stereo not given) 89.6%, CC(C)(C)OC(=O)N1CCNc2ccccc2C1 113%, Cc1cc(C)n2ncc(/C(N)=N/OC(=O)c3ccccc3F)c2n1 95.1%, Cc1ccc(-c2csc(NC(=O)C3=COCCO3)n2)cc1 85.8%, O=C(Nc1cccc(Cl)c1)N1CCN(Cc2ccccc2)CC1 80.9%, Nc1nc(-c2ccc3ccccc3c2)cs1 90.7%, CCn1c(COc2ccccc2C)nc2ccccc21 88.5%, O=C(Cc1ccccc1)Nc1nc(-c2cccs2)cs1 82.2%, COc1cccc(C(=O)Nc2ccc(Cl)c(C(F)(F)F)c2)c1 84.8%, O=C1/C(=C/c2cccnc2)CCc2c1[nH]c1ccccc21 86.4%, CCCc1cc(C(=O)Nc2cc(Cl)ccc2O)no1 81.7%, O=C(Nc1ccccc1Br)c1ccc2nccnc2c1 90.2%, O=C(CSc1nnc(-c2ccccc2)o1)N1CCCC1 81.1%, CCC(=O)Nc1ccc(NC(=O)c2cccc(OC)c2)nc1 82.6%, Brc1ccc(-c2csc(-c3ccncc3)n2)cc1 84.6%, COc1ccc(/C(N)=N/OC(=O)c2ccc3c(c2)OCO3)cc1OC 83.2%, CCN=c1scc(C)n1/N=C/c1ccsc1 83.6%, Nc1nc(-c2ccc3c(c2)OCCO3)cs1 80.9%, Cc1ccc(NC(=O)/C=C/c2ccc3c(c2)OCO3)nc1 80.5%, CNC(=O)c1c(NC(=O)c2nc3ccccc3s2)sc2c1CCC2 85.6%, CCC(=O)Nc1ccc2oc(-c3cccnc3)nc2c1 86.2%, O=C(CCC1CCCC1)Nc1ccc(Br)cn1 81.1%, CC1CCCN(C(=O)COC(=O)c2n[nH]c3ccccc23)C1 (stereo not given) 83.8%, Nc1cc(Nc2ccc(Br)cc2)nc(N)n1 80.4%, Cc1cc(C(=O)NC2CCC(C)CC2)c(C)o1 (stereo not given) 88.6%, CCOC(=O)c1ccc(NC(=O)c2ccccc2C)cc1 89.5%, CCCOC1CCCN(C(=O)c2cc(COc3cncc(Cl)c3)on2)C1 (stereo not given) 80.6%, COc1ccccc1C(=O)Nc1nsc(-c2ccccc2)n1 81.3%

activation, inactive:
CC1=C(C(=O)Nc2ccccn2)C(c2ccc(Br)cc2)NC(=S)N1 (stereo not given) 57.4%, Cc1ccccc1-n1c(=O)cc(N2CCc3ccccc3C2)[nH]c1=O -2.44%, COC(=O)C1(C(=O)OC)NOC2C(=O)N(c3ccc(Cl)cc3Cl)C(=O)C21 (stereo not given) 6.97%, COC(=O)c1ccccc1NC(=O)C1CCCCC1C(=O)O (stereo not given) -7.43%, CC(C)C(CCNCc1ccccn1)c1ccc(Cl)cc1 (stereo not given) -5.52%, COC(=O)c1ccc(N2CCC(c3cc(-c4ccc(OC)cc4)n[nH]3)CC2)c([N+](=O)[O-])c1 0.191%, O=C(Nc1ccc(-c2ccc3nncn3n2)cc1)C1CCCC1 49.5%, O=C(N/N=C/c1ccccn1)c1cc(-c2cccc3ccccc23)n[nH]1 -2.16%, O=C(CN(Cc1ccccc1)S(=O)(=O)c1cccc(C(F)(F)F)c1)NC1CCCCC1 0.302%, O=C(CCOc1ccccc1F)N1CCN(c2ccccc2O)CC1 20.9%, Cc1ccc(/C=C/C(=O)c2ccccc(=O)c2O)c(C)c1 -0.87%, COc1ccc(N2Cc3cccc(C(=O)O)c3C2=O)cc1 3.63%, CC(=O)Nc1ccc2[nH]ccc2c1 -1.92%, COc1cc(/C=C2/CCc3ccccc3C2=O)cc(OC)c1OC 0.504%, S=C1NC(c2ccccc2)=CC(c2ccccc2)N1 (stereo not given) 1.21%, COCCn1c(SCC(=O)NCc2ccco2)nnc1-c1c[nH]c2ccccc12 2.1%, COc1ccccc1N1CCN(/N=C/c2cccc(OC)c2O)CC1 75%, CN(C)S(=O)(=O)c1cccc(COc2cccnc2[N+](=O)[O-])c1 2.87%, N#CCCCCn1ccc(NC(=O)c2ccc(Cl)cc2O)n1 4.97%, N#CC1=C(N)OC2=C(C(=O)CCC2)C12C(=O)N1CCCc3cccc2c31 (stereo not given) -10.3%, Oc1ccccc1/C=N/NC(=S)NCCc1ccccc1 11.4%, O=C(NCCN1C(=O)S/C(=C\c2ccccc2Cl)C1=O)C1=COCCO1 21.6%, C=CC[C@H](CC(=O)N[C@H](CO)Cc1ccccc1)C(=O)N[C@@H](COC(=O)[C@H](CC=C)CC(=O)OC(C)(C)C)Cc1c[nH]c2ccccc12 -3.74%, CN1CCN(C(=O)C2=C[C@@H](c3csc4ccccc34)C[C@@H](OCc3ccc(CO)cc3)O2)CC1 7.48%, O=C(CN1CCN(c2ccccn2)CC1)N1CCc2ccccc21 19.8%, CS(=O)(=O)c1ccc2nc(NC(=O)CS(=O)(=O)Cc3ccccc3)sc2c1 7.95%, CCCCn1c(SCc2cccc([N+](=O)[O-])c2)nc2ccsc2c1=O -8.45%, COc1cc(C(=O)OCn2nnc3ccccc3c2=O)cc(OC)c1OC -4.59%

activation, active:
COc1cccc(OCc2cc(C(=O)N3CCN(c4ccccc4O)CC3)no2)c1 96.5%, Oc1ccc(-c2nnc(SCc3ccccc3)o2)cc1 114%, COc1ccc2nc3oc(C(=O)N4CCCCC4)cc3cc2c1 84%, COc1cccc(Nc2nn3c(=O)c4ccccc4nc3s2)c1 114%, Cc1ccc2c(COC(=O)c3ccccc3Cl)cc(=O)oc2c1 181%, COc1ccc(-c2coc3cc(OC)cc(O)c3c2=O)cc1 95.6%, COc1ccc2[nH]c(-c3ccccc3)cc2c1 106%, Cc1ccc(NC(=S)NC(=O)C2CCCC2)cc1C 114%, O=c1oc(CCO)cc2ccc(-c3ccc4[nH]ccc4c3)cc12 117%, O=C(Nc1ccc2c(c1)CCC2)c1cccc(F)c1 94.8%, CC(=O)NCCC(=O)Nc1nc2ccc(Oc3ccccc3)cc2s1 109%, Cc1ccc(CNc2nc(C)cs2)cc1 143%, Cc1cccc(Nc2nc3c(s2)CCCC3)c1 103%, Cc1nc(NC(=O)c2ccc3c(c2)OCCO3)ccc1Br 122%, CSCc1ccc(C(=O)Nc2cccc(C)c2C)cc1 112%, CCC(=O)Nc1cccc(-c2nnc(-c3ccccc3)o2)c1 100%, CCCCOc1ccc2c(c1)C(=O)c1cc(O)ccc1-2 86%, O=C(c1ccc2oc(CCc3ccccc3)nc2c1)N1CCC(O)CC1 91.5%, O=C(NCCS(=O)(=O)NCCc1ccccc1)c1ccc2c(c1)OCO2 108%, COc1cc(C)ccc1OCc1cc(C(=O)NCCN2CCOCC2)no1 107%, Cn1c(-c2ncc(F)cc2F)cc2onc(-c3c(F)cccc3Cl)c2c1=O 87.5%
